Reference: PMC3819392
Results are given in words; binding and its absence hold for the method and conditions named. Binding seen in cells or lysates may run through a third protein. Some binding calls cover weakened binding; strength is not graded here. Values belong to the binder of their own block, whether it stands above or below them.

Chains of the proteins cited; added tags and fusions are not shown.
UniProt P42336: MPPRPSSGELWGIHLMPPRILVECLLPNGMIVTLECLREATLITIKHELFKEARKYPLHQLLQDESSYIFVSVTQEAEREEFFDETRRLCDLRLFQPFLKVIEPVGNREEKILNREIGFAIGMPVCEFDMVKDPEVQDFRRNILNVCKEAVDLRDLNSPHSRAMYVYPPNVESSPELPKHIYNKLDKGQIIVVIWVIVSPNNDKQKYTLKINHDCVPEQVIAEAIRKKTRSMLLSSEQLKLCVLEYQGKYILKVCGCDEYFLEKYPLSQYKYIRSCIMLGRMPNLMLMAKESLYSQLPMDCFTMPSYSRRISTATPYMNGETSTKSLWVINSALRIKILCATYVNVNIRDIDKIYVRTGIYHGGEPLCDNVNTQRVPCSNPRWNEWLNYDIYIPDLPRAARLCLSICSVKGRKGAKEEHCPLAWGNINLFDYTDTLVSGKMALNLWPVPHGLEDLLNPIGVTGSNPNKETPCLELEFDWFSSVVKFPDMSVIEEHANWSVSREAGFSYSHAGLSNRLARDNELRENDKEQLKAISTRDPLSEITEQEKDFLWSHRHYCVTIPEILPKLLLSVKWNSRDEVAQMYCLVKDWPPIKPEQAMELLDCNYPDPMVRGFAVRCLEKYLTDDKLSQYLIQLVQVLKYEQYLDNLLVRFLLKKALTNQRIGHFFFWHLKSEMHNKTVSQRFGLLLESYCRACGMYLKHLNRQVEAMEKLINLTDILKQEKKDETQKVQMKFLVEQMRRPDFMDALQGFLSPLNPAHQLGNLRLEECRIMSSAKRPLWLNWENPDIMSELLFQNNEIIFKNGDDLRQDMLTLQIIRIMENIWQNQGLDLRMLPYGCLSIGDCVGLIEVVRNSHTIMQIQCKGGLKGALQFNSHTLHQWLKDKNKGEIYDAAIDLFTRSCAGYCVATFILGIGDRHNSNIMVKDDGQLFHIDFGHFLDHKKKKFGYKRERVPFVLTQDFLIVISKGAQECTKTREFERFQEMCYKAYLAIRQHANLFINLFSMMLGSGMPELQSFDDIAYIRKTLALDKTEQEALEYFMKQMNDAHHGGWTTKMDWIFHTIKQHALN
UniProt P42338: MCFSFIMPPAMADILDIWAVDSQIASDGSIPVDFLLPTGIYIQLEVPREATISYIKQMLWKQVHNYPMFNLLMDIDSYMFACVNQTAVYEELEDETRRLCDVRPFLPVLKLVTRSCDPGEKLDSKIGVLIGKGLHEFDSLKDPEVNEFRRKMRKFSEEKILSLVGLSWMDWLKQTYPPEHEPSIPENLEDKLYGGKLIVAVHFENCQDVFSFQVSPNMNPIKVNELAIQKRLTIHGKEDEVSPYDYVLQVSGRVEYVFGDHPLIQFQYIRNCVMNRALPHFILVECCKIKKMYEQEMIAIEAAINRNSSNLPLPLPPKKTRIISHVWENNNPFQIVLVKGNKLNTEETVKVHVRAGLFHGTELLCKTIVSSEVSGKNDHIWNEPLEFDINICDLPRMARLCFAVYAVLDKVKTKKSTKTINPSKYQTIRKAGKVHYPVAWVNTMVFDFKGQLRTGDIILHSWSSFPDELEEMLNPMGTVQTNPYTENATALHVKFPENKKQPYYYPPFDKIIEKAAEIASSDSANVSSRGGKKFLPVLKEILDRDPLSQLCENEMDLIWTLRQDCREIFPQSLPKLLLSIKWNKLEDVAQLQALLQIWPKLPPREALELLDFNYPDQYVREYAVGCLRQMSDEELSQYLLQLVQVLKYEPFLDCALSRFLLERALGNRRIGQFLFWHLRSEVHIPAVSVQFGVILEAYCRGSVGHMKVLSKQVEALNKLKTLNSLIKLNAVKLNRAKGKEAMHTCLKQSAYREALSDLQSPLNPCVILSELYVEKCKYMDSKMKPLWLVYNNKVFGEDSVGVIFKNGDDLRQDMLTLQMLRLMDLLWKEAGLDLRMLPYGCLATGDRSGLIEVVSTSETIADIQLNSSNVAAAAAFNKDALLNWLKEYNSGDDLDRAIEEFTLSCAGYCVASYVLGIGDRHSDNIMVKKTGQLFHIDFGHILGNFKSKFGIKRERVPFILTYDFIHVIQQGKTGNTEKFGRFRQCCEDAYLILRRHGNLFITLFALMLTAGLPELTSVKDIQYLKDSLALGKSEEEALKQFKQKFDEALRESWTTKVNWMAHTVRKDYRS
UniProt P27986: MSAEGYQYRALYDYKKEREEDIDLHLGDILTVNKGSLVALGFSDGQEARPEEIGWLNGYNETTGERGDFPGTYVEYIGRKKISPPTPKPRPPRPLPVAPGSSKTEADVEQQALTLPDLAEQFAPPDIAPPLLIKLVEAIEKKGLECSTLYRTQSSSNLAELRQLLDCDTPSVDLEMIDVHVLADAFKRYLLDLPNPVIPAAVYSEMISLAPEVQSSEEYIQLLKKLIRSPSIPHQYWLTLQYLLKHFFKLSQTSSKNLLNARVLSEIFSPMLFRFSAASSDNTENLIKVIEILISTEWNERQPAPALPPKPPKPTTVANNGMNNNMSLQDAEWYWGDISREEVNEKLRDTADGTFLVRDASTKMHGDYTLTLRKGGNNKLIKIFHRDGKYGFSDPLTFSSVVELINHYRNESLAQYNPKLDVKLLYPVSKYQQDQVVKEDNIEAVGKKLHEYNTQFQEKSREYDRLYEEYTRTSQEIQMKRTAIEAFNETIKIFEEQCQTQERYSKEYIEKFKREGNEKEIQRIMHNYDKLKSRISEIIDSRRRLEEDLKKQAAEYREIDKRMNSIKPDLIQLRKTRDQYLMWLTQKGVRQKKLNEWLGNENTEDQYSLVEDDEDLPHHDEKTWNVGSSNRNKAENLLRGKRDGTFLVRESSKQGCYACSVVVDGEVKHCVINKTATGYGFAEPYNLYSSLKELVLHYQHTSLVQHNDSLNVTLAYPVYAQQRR
UniProt P60484: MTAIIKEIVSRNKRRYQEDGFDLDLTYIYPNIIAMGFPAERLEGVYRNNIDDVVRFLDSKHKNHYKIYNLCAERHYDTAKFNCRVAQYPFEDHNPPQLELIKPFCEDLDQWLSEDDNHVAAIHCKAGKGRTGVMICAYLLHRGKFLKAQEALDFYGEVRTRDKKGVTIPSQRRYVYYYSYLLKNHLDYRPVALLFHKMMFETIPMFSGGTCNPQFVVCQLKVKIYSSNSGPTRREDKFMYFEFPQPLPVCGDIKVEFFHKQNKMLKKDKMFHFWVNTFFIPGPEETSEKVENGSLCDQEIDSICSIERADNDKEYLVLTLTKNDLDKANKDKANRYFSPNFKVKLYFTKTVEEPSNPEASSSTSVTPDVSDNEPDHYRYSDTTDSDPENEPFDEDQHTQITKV

Key:
[1] = target: PI3K p110α catalytic subunit, endogenous in HuH7 cells (human (endogenous in HuH7)) (UniProt P42336); test: co-IP; Lysates of HSP20-overexpressing (or empty vector) HuH7 cells in TNE buffer (10 mM Tris-HCl pH 7.8, 1% Nonidet P-40, 150 mM NaCl, 1 mM EDTA, 1 mM DTT); antibody overnight at 4°C, Dynabeads protein A; Western blot; IP with antibodies to the partner or to HSP20
[2] = target: PI3K p110β catalytic subunit, endogenous in HuH7 cells (human (endogenous in HuH7)) (UniProt P42338); test: as above
[3] = target: PI3K p85 regulatory subunit, endogenous in HuH7 cells (human (endogenous in HuH7)) (UniProt P27986); test: as above
[4] = target: Phosphatase and tensin homologue (PTEN), endogenous in HuH7 cells (human (endogenous in HuH7)) (UniProt P60484); test: as above
[5] = target: PI3K p110α catalytic subunit, endogenous in human HCC tissue (human (endogenous in HCC tissue)) (UniProt P42336); test: co-IP; Lysate of a stage II human HCC tissue in TNE buffer; IP with antibodies to PI3K p85, p110α or p110β overnight at 4°C, Dynabeads protein A; Western blot with HSP20 antibodies
[6] = target: PI3K p110β catalytic subunit, endogenous in human HCC tissue (human (endogenous in HCC tissue)) (UniProt P42338); test: as above
[7] = target: PI3K p85 regulatory subunit, endogenous in human HCC tissue (human (endogenous in HCC tissue)) (UniProt P27986); test: as above

binding [1]: binds | binding [2]: binds | binding [3]: binds | binding [4]: no binding
B1: HSP20 (HSPB6), wild-type human, overexpressed in HuH7 cells (protein, UniProt O14558 1-160)
chain: MEIPVPVQPSWLRRASAPLPGLSAPGRLFDQRFGEGLLEAELAALCPTTLAPYYLRAPSVALPVAQVPTDPGHFSVLLDVKHFSPEEIAVKVVGEHVEVHARHEERPDEHGFVAREFHRRYRLPPGVDPAAVTSALSPEGVLSIQAAPASAQAPPPAAAK

binding [5]: binds | binding [6]: binds | binding [7]: binds
B2: HSP20 (HSPB6), endogenous in human HCC tissue (protein, UniProt O14558 1-160)
chain: B1 chain
